Some of the results follow. Single values are uncertain, as repeats are few or missing.

The test system of the assay is Candida albicans DPL-15. Kind of assay: growth (OD600) after compound treatment (apparently relative to screen median) (relative growth (fraction; screen median 1.02)); DPL-15 is a caspofungin-resistant clinical isolate; higher = more fungal growth (less antifungal activity). Conditions: 25 µM; RPMI 1640; 48 h; 30 °C.
Regarding `C=CCN1C(=O)C2=C(C(c3ccccc3)=NCCN2C)C1c1ccc(F)cc1` (centres undefined), the growth turned out to be 0.952.

With `C=CCOC(=O)NC(c1ccc(F)c(F)c1)S(=O)(=O)c1ccc(Cl)cc1` (centres undefined), the growth came to 1.15.

`CCN1C(=O)[C@H]2C[C@@]13O[C@H](C1CCNCC1)N=C3C[C@H](c1ccccc1)[C@H]2C`: the growth came to 1.05.

On to `COC(=O)N1C(C2CC2)=Cc2ccccc2C1CC(C)=O` (centres undefined), for which the growth is 1.17.

Take `C[C@@H](NS(=O)(=O)OCCCc1ccccc1)c1ccccc1`: the growth is 0.81.

Regarding `CCC1=Nc2ccccc2C1(C)Cc1occc(=O)c1O` (centres undefined), the growth was found to be 1.06.

Regarding `COC(=O)C1C(=O)C(C)(Cl)C(=O)C(C)=C1C` (centres undefined), the growth was found to be 1.02.

With `C#CCC(C)(C)CNC(=O)C(O)CNC(=O)c1cccc(/C=N/NS(=O)(=O)c2ccc(C)cc2)c1` (centres undefined), the growth came to 1.03.

Consider `COC(=O)C1=C(C)[C@@]2(C)C[C@H]3C(C)(C)CCC[C@]3(C)[C@@](C)(C1=O)C2=O`, for which the growth was 1.08.

`Cc1nn(C)c2c1C(c1ccccc1)NC2=O` (centres undefined): the growth amounted to 0.997.

For the compound `COC(=O)[C@@]1(/C=C2/c3ccc(F)cc3[C@@H](OC)[C@@H]2C)[C@@H]2CC=C[C@@H]21`, the growth is 1.02.

Consider `COC(=O)C/C=C/[C@@H](C)[C@H](NC(=O)[C@H](N)C(C)C)c1ccccc1`, for which the growth is 1.09.

On to `CC/C=C\CCOS(=O)(=O)NC(C)C`, for which the growth came to 0.782.

As for `COC(=O)Cc1nnn2c1[C@H](C)[C@@H](OC)c1cccc(Cl)c1-2`, the growth was 1.03.

In the case of `CN(Cc1ccncc1)CC1CCCN(CCc2ccccc2)C1` (centres undefined), the growth was 0.893.

Take `Cc1ccc(S(=O)(=O)N2CCCc3nc(C)c(C)cc32)cc1`: the growth turned out to be 0.914.

Turning to `COC(=O)Cc1nnn2c1[C@H](C)[C@H](c1ccccc1Br)OC[C@@H]2c1ccccc1`, the growth was found to be 0.928.

Regarding `COC(=O)C1=C(C)N(Cc2ccc(F)cc2)C(=S)NC1c1ccc(Br)cc1` (centres undefined), the growth is 0.931.

Consider `CCCOS(=O)(=O)NC(C)(C)C`, for which the growth was 1.03.

Regarding `COc1ccc(N2C(=O)C3=C(C(c4ccccc4)=NCCN3)C2c2ccc(F)cc2)cc1` (centres undefined), the growth amounted to 1.03.

Turning to `CC(C)[C@H]1CC[C@H](C)C[C@@H]1OS(=O)(=O)Nc1cncnc1`, the growth turned out to be 1.15.

Consider `COC(=O)[C@H]1[C@H](C(=O)OC)[C@@H](c2ccc(OC)c(OC)c2OC)[C@@H]1c1ccc(OC)c(OC)c1OC`, for which the growth is 0.916.

With `CO[C@@H]1[C@H](O)CC[C@]2(O)CN(Cc3cccc4ccccc34)[C@](C)([C@H](O)CC=C(C)C)[C@@H]12`, the growth was 1.13.

As for `COC(=O)C1=C(CCl)NC(=O)N(C(C)=O)C1c1cccc(C#N)c1` (centres undefined), the growth turned out to be 1.11.

`COC(=O)CCCn1c(-c2ccccc2)nc2c(c1=O)[C@H](c1ccccc1)[C@]1(c3ccc(OC)cc3)Oc3cc(OC)cc(OC)c3[C@]21O`: the growth stood at 1.11.

As to `CC1=C[C@H](COc2ccc(Br)cc2)O[C@]2(C1)C(=O)Nc1cc(F)ccc12`, the growth turned out to be 0.863.

For `C=CCN1C(=O)C2=C(C(c3ccccc3)=NCCN2)C1c1ccc(C)cc1` (centres undefined), the growth was found to be 1.06.

For the compound `c1ccc(CCCc2cc3ccccc3c(CCCc3ccccc3)n2)cc1`, the growth was determined as 1.08.

`C[C@H]1/C=C/CC(=O)OCCC(Oc2ccccc2)C(=O)N[C@@H](Cc2c[nH]c3ccccc23)C(=O)N[C@H]1c1ccccc1` (some centres undefined): the growth came out at 0.896.

Turning to `COC(=O)C1=C(C)N(Cc2ccc(Cl)cc2)C(=S)NC1c1ccccc1` (centres undefined), the growth is 0.896.

On to `COc1ccc2c(c1)[C@@H](NC(=O)Nc1ccccc1)[C@H](C)[C@H]2c1ccccc1`, for which the growth was 1.18.

Consider `O=S(=O)(N1CCc2nc(-c3ccccc3)c(-c3ccccc3)cc2C1)C(F)(F)F`, for which the growth is 1.21.

Take `COc1cc2c(cc1OC)[C@@H]1O[C@](CCCN3C(=O)c4ccccc4C3=O)(C2)OC2=C1C(=O)CC(C)(C)C2`: the growth was determined as 1.01.

On to `CCN1C(NCC(C)C)=NC(c2ccc(Cl)cc2)C(C(=O)OC)=C1C` (centres undefined), for which the growth was determined as 0.897.

Regarding `O=C1OC2(CCCCC2)CC2=C1[C@H]1O[C@](CCCCN3C(=O)c4ccccc4C3=O)(Cc3ccccc31)O2`, the growth was determined as 0.98.

In the case of `COc1ccc([C@@H]2[C@@H](C(=O)NCC3CC3)[C@@H](C(=O)NCC3CC3)[C@@H]2c2ccc(OC)c(OC)c2)cc1OC`, the growth was 1.12.

On to `Cc1cc(C)cc(-n2nc3c(c2-c2ccccc2)C(c2ccccc2)NC3=O)c1` (centres undefined), for which the growth came out at 0.922.

For the compound `COc1ccc(N2C(=O)C3=C(C(c4ccccc4)=NCC(C)(C)N3)C2c2ccc(Br)cc2)cc1` (centres undefined), the growth worked out at 0.915.

For `C[C@H]1C[C@H]2CC(=O)N[C@@H](Cc3c[nH]c4ccccc34)C(=O)N2[C@H]1c1ccccc1`, the growth is 0.973.

Regarding `CC(C)c1c2c(nn1Cc1ccccc1)C(=O)NC2c1ccc(Br)cc1` (centres undefined), the growth is 1.19.

As for `COC(=O)c1cc(OC)c(Cl)c(O)c1OC`, the growth is 1.04.

For the compound `COC(=O)[C@@]12Oc3cccc(O)c3C(OC)=C1C(=O)CC[C@H]2O`, the growth worked out at 1.05.

For the compound `COc1cccc(C#C[C@@H]2C=C[C@H](OC(C)=O)[C@@H](COC(C)=O)O2)c1`, the growth was 0.874.

On to `CCCC[C@H](C)OS(=O)(=O)NC(C)(C)C`, for which the growth stood at 1.11.

On to `[N-]=[N+]=Nc1cc(O)cc(O)c1C(=O)N1Cc2cn[nH]c2C1`, for which the growth was 1.07.

Consider `COC(=O)[C@]12C[C@@H](C)[C@@H]3[C@@H](C)[C@H](c4ccccc4[C@H]31)N2C(=O)C(F)(F)F`, for which the growth worked out at 0.965.

With `CC(C)Cc1n[nH]c2c1C(c1ccc(F)cc1)N(c1ccc(F)cc1F)C2=O` (centres undefined), the growth is 0.933.

Take `COC(=O)C1=C(C)N(Cc2ccc(Br)cc2)C(=S)NC1c1ccc(F)cc1` (centres undefined): the growth was determined as 0.982.

Regarding `CCCCCN(C(=O)OC(C)(C)C)S(=O)(=O)Nc1ccc(C(F)(F)F)cc1`, the growth amounted to 1.23.

Consider `CCNC(=O)OC[C@H]1O[C@H](C#Cc2ccc(C(C)(C)C)cc2)C=C[C@H]1O`, for which the growth is 1.02.

Regarding `CC(=O)C1=C(C)NC(=O)NC1c1ccc(Br)cc1` (centres undefined), the growth was found to be 1.04.

For `CCN(CC)C(=O)c1c(O)cc(O)cc1CC(=O)CC(C)(C)C`, the growth was 0.968.

For `CC1=NCCN(C)C2=C1C(c1cccc(C(F)(F)F)c1)N(c1ccccc1)C2=O` (centres undefined), the growth was 0.942.

For the compound `CC(C)Cc1c2c(nn1Cc1ccccc1)C(=O)NC2c1ccccc1` (centres undefined), the growth is 1.15.

Turning to `CCN1C(=S)NC(c2cccc(OC)c2)C(C(=O)OC)=C1C` (centres undefined), the growth came to 1.08.

In the case of `Cc1cc2c(nc1C)CCCN2C`, the growth amounted to 1.01.

Regarding `C[C@H]1C[C@H]2CC(=O)N(C)[C@@H](Cc3ccccc3)C(=O)N2[C@H]1c1cccc(Br)c1`, the growth is 1.1.

Turning to `COC(=O)C1=C(C(=O)OC)[C@@H]2N(C)c3ccccc3[C@@]23C[C@@H](CO)N(C(=O)C2CCC2)C3=N1`, the growth stood at 0.991.

`COC(=O)C/C=C/[C@H](C)[C@@H](NC(=O)[C@H](CC(=O)OCc1ccccc1)NC(=O)OC(C)(C)C)c1ccccc1`: the growth worked out at 1.01.

As to `COC(=O)N[C@@H](c1ccc2ccccc2c1)C(C(C)=O)C(=O)OC` (some centres undefined), the growth was 0.94.

Regarding `C=CCC1=C(OC)[C@@]2(CC=C)C[C@@H]3[C@@H](c4ccc(OC)cc4)[C@](O)(c4ccccc4)[C@]3(C1=O)C2=O`, the growth came out at 1.11.

As for `COC(=O)c1nnc(C(=O)OC)c2[nH]c(-c3ccccc3)nc12`, the growth came out at 1.06.

Consider `Cc1cc(C)cc(-n2nc(C)c3c2C(=O)NC3c2ccccc2)c1` (centres undefined), for which the growth was determined as 0.968.

Take `COc1cc([C@H]2c3c(OC)c(O)c4oc5cc(Cl)ccc5c(=O)c4c3[C@@H]3C=C(C)CC(C)(C)[C@H]23)c2c(=O)c3ccc(Cl)cc3oc2c1O`: the growth came to 1.16.

Turning to `COc1ccc2c(c1)[C@@H](NS(=O)(=O)c1ccc(Br)cc1)[C@H](C)[C@H]2c1ccccc1`, the growth is 1.04.

Turning to `C=CCC[C@@H](O)COc1cc2c(cc1C1(c3cc4c(cc3OC[C@H](O)CCC=C)OCO4)C(=O)Nc3cccc(Br)c31)OCO2`, the growth stood at 0.857.

For the compound `COc1cc2c(cc1OC)CN(CC1CCCN(CCc3ccccc3)C1)CC2` (centres undefined), the growth is 1.13.

For the compound `COC(=O)C1=C(C)N(Cc2ccc(Cl)cc2)C(=S)NC1c1ccccc1Br` (centres undefined), the growth stood at 1.1.

In the case of `COC(=O)[C@H]1[C@H](C(=O)OC)[C@@H](c2ccc(OC)c(OC)c2)[C@@H]1c1ccc(OC)c(OC)c1`, the growth was found to be 1.1.

In the case of `C=CC[C@]12C[C@@]3(O[C@H](C(C)C)N=C3C[C@H](c3ccc(OC)cc3)[C@H]1C)N(Cc1ccco1)C2=O`, the growth turned out to be 0.998.

As for `COc1ccc([C@]23[C@@H](c4ccccc4)C[C@@H](O)[C@@]2(O)c2c(F)cccc2N3C)cc1`, the growth came out at 0.883.

Regarding `COC(=O)C1=C(C)N(Cc2ccc(C(F)(F)F)cc2)C(NCC2CCCCC2)=NC1c1ccccc1` (centres undefined), the growth stood at 0.792.

With `CC(C)c1cc(N)n(C)n1`, the growth was 1.16.

`CCOC(=O)OC[C@H]1O[C@H](C#Cc2ccc(C(C)(C)C)cc2)C=C[C@@H]1OC(=O)OCC`: the growth is 0.735.

In the case of `C=CCCN1C(=O)[C@H]2[C@H]3c4ccccc4[C@]([C@@H](COC)OC)(c4ccccc43)[C@H]2C1=O`, the growth was found to be 0.93.

For the compound `COc1ccc(N2C(=O)C3=C(C(C)=NCC(C)(C)N3)C2c2ccc(C)cc2)cc1` (centres undefined), the growth was found to be 1.04.

Take `C#Cc1cc(OC)cc(OC)c1-c1cc(OC)ccc1O`: the growth amounted to 0.994.

In the case of `COc1ccc(N2C(=O)C3=C(C(C)=NCCN3)C2c2ccc(Br)cc2)cc1` (centres undefined), the growth was determined as 1.01.

As to `CO[C@@H]1[C@H](O)CC[C@]2(O)CN(CC3CC3)[C@](C)([C@H](O)CC=C(C)C)[C@@H]12`, the growth amounted to 1.06.
